Results from publication PMC4336329 (PLoS ONE, 2015).
Among all 310,000 compounds or so, about 2,200 (0.71%) showed an effect of 50% or more. The effect is printed as a negative number. This is one part of the list.

target: human ether-à-go-go-related gene (hERG) potassium channel (human, UniProt Q12809); experiment: primary screen, population patch clamp on CHO cells stably expressing hERG
Sequence (Q12809 whole entry, looked up): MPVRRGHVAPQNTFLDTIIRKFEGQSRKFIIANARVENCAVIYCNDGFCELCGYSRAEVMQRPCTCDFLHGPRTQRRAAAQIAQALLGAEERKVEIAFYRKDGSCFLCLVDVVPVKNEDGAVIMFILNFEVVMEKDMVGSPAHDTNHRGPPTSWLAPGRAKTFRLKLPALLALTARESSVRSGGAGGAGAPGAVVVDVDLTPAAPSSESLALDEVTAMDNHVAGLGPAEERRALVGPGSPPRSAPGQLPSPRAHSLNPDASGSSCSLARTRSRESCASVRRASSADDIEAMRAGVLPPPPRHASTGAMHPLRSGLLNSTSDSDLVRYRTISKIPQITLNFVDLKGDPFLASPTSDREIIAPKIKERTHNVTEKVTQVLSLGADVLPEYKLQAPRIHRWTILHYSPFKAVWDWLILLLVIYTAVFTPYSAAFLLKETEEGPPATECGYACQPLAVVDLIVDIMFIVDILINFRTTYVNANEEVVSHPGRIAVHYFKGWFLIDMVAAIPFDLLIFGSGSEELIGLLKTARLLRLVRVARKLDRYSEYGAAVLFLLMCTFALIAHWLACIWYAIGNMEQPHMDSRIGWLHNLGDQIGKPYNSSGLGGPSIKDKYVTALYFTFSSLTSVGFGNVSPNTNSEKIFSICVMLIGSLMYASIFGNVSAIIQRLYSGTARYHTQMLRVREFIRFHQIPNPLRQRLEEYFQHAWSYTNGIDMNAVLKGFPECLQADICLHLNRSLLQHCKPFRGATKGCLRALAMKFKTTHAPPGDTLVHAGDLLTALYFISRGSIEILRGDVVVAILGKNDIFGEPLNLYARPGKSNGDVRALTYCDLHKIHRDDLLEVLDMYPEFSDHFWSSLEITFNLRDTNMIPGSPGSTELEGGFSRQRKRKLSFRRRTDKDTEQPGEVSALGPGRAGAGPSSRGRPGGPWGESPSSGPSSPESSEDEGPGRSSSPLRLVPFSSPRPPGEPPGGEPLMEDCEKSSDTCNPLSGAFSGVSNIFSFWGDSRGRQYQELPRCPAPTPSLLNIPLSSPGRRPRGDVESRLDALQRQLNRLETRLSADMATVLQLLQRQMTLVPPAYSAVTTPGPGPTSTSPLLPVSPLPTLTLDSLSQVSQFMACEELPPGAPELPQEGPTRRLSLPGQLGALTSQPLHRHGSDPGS

SMILES | hERG current change (%, negative = inhibition) at 1uM [%]
O=S(=O)(Nc1ccc(F)cc1Cl)c1ccc(-c2cnc(C3CC3)o2)cc1 | 9.47
COc1cc(-c2ccc(N)c(OC)c2)ccc1N | 6.99
CC(Sc1nnc2ccccn12)C(=O)N1CCc2ccccc2C1 (stereo not shown) | 6.67
CN(C)C(CNC(=O)CNC(=O)Cc1cccc2ccccc12)c1ccccc1 (stereo not shown) | 1.34
CCOC(=O)CCC(=O)O[C@H]1[C@H](O[C@@H]2[C@@H](C)[C@H](O[C@H]3C[C@@](C)(OC)[C@@H](O)[C@H](C)O3)[C@@H](C)C(=O)O[C@H](CC)[C@@](C)(O)[C@H](O)[C@@H](C)C(=O)[C@H](C)C[C@@]2(C)O)O[C@H](C)C[C@@H]1N(C)C | 3.84
COC(=O)c1ccc(N(CC(=O)NC2CCCC2)C(=O)c2ccc(C)s2)cc1 | 14.1
CCOc1ccc2nc(N/C(N)=N/C(=S)Nc3cccc(C)c3)nc(C)c2c1 | 0.992
CN(C)c1ccc(/C=N/NC(=O)c2ccccc2O)o1 | 15.7
Cc1ccc(-c2nc(CN3CCCCC3c3cccc(F)c3)c(C)o2)o1 (stereo not shown) | 25.8
O=C(O)c1ccc(NC(=O)c2cn(-c3ccccc3)nc2-c2ccccc2)cc1 | 16.4
O=C(CCCNC(=O)c1ccc(Cl)cc1)NCc1ccc(F)cc1 | 8.23
CS(=O)(=O)c1nc([N+](=O)[O-])nn1CCCc1ccccc1 | 14.2
Cc1nn(-c2ccccc2)c2nc(N)c(C#N)c(-c3ccc(F)cc3)c12 | 17
O=C(CN1CCOCC1)Nc1cccc(Br)c1 | 0.83
O=C(CCc1ccccc1)NNC(=O)COc1ccccc1 | 4.06
Clc1ccc(-n2nnnc2CN2CCOCC2)cc1 | 4.32
Cc1c(NS(=O)(=O)c2cc(NC(=O)CCN3CCCC(C)C3)ccc2Cl)c(=O)n(-c2ccccc2)n1C (stereo not shown) | 11.9
CCN(C(=O)COC(=O)c1cc(OC)c(OC)cc1[N+](=O)[O-])C1CCS(=O)(=O)C1 (stereo not shown) | 10.9
C/C(=N\Nc1ccccn1)c1ccc(S(=O)(=O)NCc2ccco2)cc1 | 14.7
Cn1c(CCN2CCCC2)nc2cc(NS(=O)(=O)c3ccc(Cl)cc3)ccc21 | -62
CCN1CCCc2cc(CN(CCN3CCOCC3)C(=S)Nc3cccc(Cl)c3)ccc21 | 8.35

SMILES | hERG current change (%, negative = inhibition) at 1uM [%]
O=C1c2ccccc2-c2ccc(C(=O)N3CCCCC3)cc21 | 1.92
Cc1c(CC(=O)NCCCC(=O)O)c(=O)oc2cc3c(cc12)CCC(C)(C)O3 | 6.03
Cc1c(C(=O)Nc2ccc(F)cc2)sc2ncn(CC(=O)N3CCCCC3)c(=O)c12 | 17.8
Cc1sc2nc(SCC(=O)Nc3ccc(S(N)(=O)=O)cc3)[nH]c(=O)c2c1C | 6.87
N/C(Cc1ccc([N+](=O)[O-])cc1)=N\OC(=O)c1ccc(Br)cc1 | -3.44
COC(=O)c1c(NC(=O)CSc2ccccc2N)sc(C)c1C | 12.3
O=CO.c1ccc2c(c1)CSc1sccc1C2=C1CCNCC1 | 9.68
O=C(NCCCNCc1ccccc1)/C(=N\O)c1ccccc1 | 4.17
CCOC(=O)c1sc(=S)n(-c2ccc(C)cc2)c1SC | 13.1
CCC(=O)Nc1ccc(S(=O)(=O)Nc2ncccn2)cc1 | 20.2
CC(C)Sc1nc2c(c(=O)[nH]c(=O)n2C)n1CC(O)COc1ccccc1 (stereo not shown) | 13.3
CCCc1nc2oc3c(NCC(C)O)ncnc3c2c2c1CCCC2 (stereo not shown) | 9.22
Cc1ccc(N(CC(=O)NCc2ccco2)S(=O)(=O)c2ccccc2)cc1 | 5.16
COc1ccccc1C1OC2=C(Nc3ccc([N+](=O)[O-])cc3N2)C1=O (stereo not shown) | 13
O=C(Oc1ccc(C(=S)N2CCOCC2)cc1)c1cc([N+](=O)[O-])cc([N+](=O)[O-])c1 | 3.18
CC1=C(C(=O)Nc2ccc(C)cc2C)C(c2ccc(C)o2)NC(=S)N1 (stereo not shown) | 3.15
COC(=O)C1=C(c2ccc(C(C)=O)cc2)C[C@@H]2CC[C@H]1N2C(=O)NC1CCCCC1 | -8.6
CN(C)C(=O)NC(Nc1cccc([N+](=O)[O-])c1)C(Cl)(Cl)Cl (stereo not shown) | 4.79
COCCNc1nc2c(c(=O)n(Cc3cccc(Cl)c3)c(=O)n2C)n1C | 9.77
COc1ccc(S(=O)(=O)Nc2ccc3c(c2)N(C(C)=O)CCC3)cc1OC | 17.3
COc1ccc(C2=NS(=O)(=O)N(C)C(C(=O)NCc3ccc4c(c3)OCO4)=C2)cc1 | -8.71

SMILES | hERG current change (%, negative = inhibition) at 1uM [%]
COc1ccc(S(=O)(=O)NCC(c2ccco2)N2CCc3ccccc3C2)cc1 (stereo not shown) | 10.1
Cc1c(C(=O)N2CCc3ccccc3C2)oc2ccccc12 | -1.86
CCOc1ccccc1NC(=O)CCCNC(=O)c1ccc(Cl)cc1 | 12.7
O=C(O)CCn1cc(/C=N/O)c(-c2cccc([N+](=O)[O-])c2)n1 | 13.6
Cc1c(NC(=O)Nc2ccc3c(c2)OCO3)cccc1[N+](=O)[O-] | 13.2
CCOc1ccc2c(c1)s/c(=N\S(=O)(=O)c1ccc(OC)cc1)n2C(F)F | 5.16
CCCCCOc1ccc(CSCCNC(=S)Nc2ccccc2)cc1 | 8.49
C#CCOCCOCCOCCNc1nc(N2CCN(C(=O)[C@H](CCC(=O)O)n3cc(C(N)CC(C)C)nn3)CC2)nc(N2CCN(C(=O)[C@H](CCC(=O)O)n3cc(C(N)CC(C)C)nn3)CC2)n1.Cl (stereo partly shown) | 17.2
COc1ccc(C)cc1NC(=O)C1CCN(S(=O)(=O)c2ccc3c(c2)NC(=O)CO3)CC1 | 11.3
O=C(O)c1cc(N/N=C/c2c[nH]c3ccccc23)ccc1Cl | 12.5
COc1cc(C(=O)N=C2SC3CS(=O)(=O)CC3N2c2ccccc2)cc(OC)c1OC (stereo not shown) | 12.6
CCOc1ccccc1N1CCN(C(=S)NC(=O)C23CC4CC(CC(C4)C2)C3)CC1 | 1.79
O=c1c2c(nc3n1CCS3)c1cc(F)ccc1n2Cc1cc(=O)n2cc(Cl)ccc2n1 | 10.3
CC(NC(=O)CCCc1c[nH]c2ccccc12)c1ccc(F)cc1 (stereo not shown) | 14.1
Cc1ccc(-c2nn3cnnc3c3ccccc23)cc1C | 5.36
O=C(N/N=C/c1c(O)n(CCC2=CCCCC2)c(=S)[nH]c1=O)c1ccccc1 | 12.6
O=S(=O)(CCN1CCN(c2ccccn2)CC1)c1ccc(Cl)cc1Cl | -3.62
Cc1c(Br)c([N+](=O)[O-])nn1CCCC(=O)Nc1sc2c(c1C(N)=O)CCC(C)C2 (stereo not shown) | -2.92
Cc1ccc2nc(-c3ccc(SCC(=O)Nc4nc(C)cs4)nc3)[nH]c2c1 | 5.41
O=C(O)c1ccc(N/N=C2/CCSc3ccc(F)cc32)cc1 | 2.15
CCCc1cc(C(=O)Nc2cc(Br)ccc2O)no1 | 18.4

SMILES | hERG current change (%, negative = inhibition) at 1uM [%]
CC(=O)CCc1oc2ccccc2c1-c1ccccc1 | 9.75
COCCNc1ncnc2c1cnn2Cc1ccc(Cl)cc1 | -6.85
COCCOC(=O)C1=C(C)NC(=O)NC1c1c(F)cccc1Cl (stereo not shown) | 6.78
Cc1cccc(OCc2nc(-c3ccccn3)n[nH]2)c1 | 5.99
COc1ccc2oc(=O)c(C(C)=O)cc2c1 | 13.8
O=C(O)CC(NC(=O)C1c2ccccc2Oc2ccccc21)c1ccc(OC2CCCC2)cc1 (stereo not shown) | 10.7
CCc1ccccc1NC(=O)COc1cccc(-n2cnnn2)c1 | 9.74
COc1ccc2cnnc(SCC(=O)Nc3ccc(C(C)=O)cc3)c2c1OC | 1.42
CC(C)(O)CC[C@@H](O)[C@](C)(O)C1CC[C@@]2(O)C3=CC(=O)[C@]4(O)C[C@@H](O)[C@@H](O)C[C@]4(C)C3CC[C@]12C (stereo partly shown) | 17.1
CCOC(=O)c1ccccc1NC(=O)COC(=O)CCNS(=O)(=O)c1ccc(C)c(C)c1 | 15.2
CC(C)CC(NC(=O)COc1ccccc1)C(=O)O (stereo not shown) | 15.9
Cc1c(NC(=O)c2cccc(S(=O)(=O)N3CCOCC3)c2)c(=O)n(-c2ccccc2)n1C | 8.37
CCOC(=O)C1=C(C)C2C3C(=O)N(c4ccccc4C)C(=O)C3C1(C)C1C(=O)N(c3ccccc3C)C(=O)C21 (stereo not shown) | -4.44
CC1CCCC(C)N1CCNC(=O)Nc1ccc(Cl)cc1 (stereo not shown) | -20.5
Cc1ccc(NC(=O)c2cc(C)nc3ccccc23)c(C)c1 | 12.4
Cc1cccc(NC(=O)c2ccc(NC(=O)c3ccccc3Br)cc2)c1 | 13.9
CC(=O)c1ccc(OCc2cc(C(=O)N3CCC(c4ccncc4)CC3)no2)cc1 | -0.849
CCc1ccnc(NS(=O)(=O)c2ccc3c(c2)OCCO3)c1 | 16.5
COc1ccc(Cc2nc3ccc(C(=O)N4CCC(N(C)C)C4)cc3o2)cc1 (stereo not shown) | 11.6
